Test results published in paper PMC10699790 (Science Advances, 2023).

Biological target: HA-Halo-mGluR2 (rat, UniProt P31421 19-872, Halo tag labeled with CA-SS-Alexa-488)
Test: single-molecule pulldown

UniProt P31421, sequence (P31421 19-872): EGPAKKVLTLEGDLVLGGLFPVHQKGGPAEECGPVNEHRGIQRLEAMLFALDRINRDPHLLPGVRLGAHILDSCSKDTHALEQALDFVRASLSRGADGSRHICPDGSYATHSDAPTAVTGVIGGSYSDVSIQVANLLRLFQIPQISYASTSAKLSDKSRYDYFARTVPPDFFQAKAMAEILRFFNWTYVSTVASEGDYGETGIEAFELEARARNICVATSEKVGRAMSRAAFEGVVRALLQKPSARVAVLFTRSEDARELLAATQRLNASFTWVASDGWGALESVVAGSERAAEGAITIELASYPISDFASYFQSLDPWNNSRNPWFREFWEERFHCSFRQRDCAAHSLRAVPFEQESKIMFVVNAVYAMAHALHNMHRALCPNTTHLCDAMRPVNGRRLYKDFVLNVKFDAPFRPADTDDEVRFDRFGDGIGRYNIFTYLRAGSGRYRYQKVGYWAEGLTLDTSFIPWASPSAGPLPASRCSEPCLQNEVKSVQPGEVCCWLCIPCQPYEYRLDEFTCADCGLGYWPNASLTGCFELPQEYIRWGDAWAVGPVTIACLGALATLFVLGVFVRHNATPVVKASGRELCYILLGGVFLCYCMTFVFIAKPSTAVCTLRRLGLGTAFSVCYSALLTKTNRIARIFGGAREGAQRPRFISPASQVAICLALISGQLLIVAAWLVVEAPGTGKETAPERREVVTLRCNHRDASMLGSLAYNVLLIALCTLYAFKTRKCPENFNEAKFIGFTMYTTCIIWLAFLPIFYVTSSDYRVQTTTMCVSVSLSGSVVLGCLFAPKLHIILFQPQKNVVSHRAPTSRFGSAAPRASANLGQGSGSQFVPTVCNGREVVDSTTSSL

B1: SNAP-mGluR8 without an HA tag (receptor)
chain: QEYAHSIRVDGDIILGGLFPVHAKGERGVPCGELKKEKGIHRLEAMLYAIDQINKDPDLLSNITLGVRILDTCSRDTYALEQSLTFVQALIEKDASDVKCANGDPPIFTKPDKISGVIGAAASSVSIMVANILRLFKIPQISYASTAPELSDNTRYDFFSRVVPPDSYQAQAMVDIVTALGWNYVSTLASEGNYGESGVEAFTQISREIGGVCIAQSQKIPREPRPGEFEKIIKRLLETPNARAVIMFANEDDIRRILEAAKKLNQSGHFLWIGSDSWGSKIAPVYQQEEIAEGAVTILPKRASIDGFDRYFRSRTLANNRRNVWFAEFWEENFGCKLGSHGKRNSHIKKCTGLERIARDSSYEQEGKVQFVIDAVYSMAYALHNMHKDLCPGYIGLCPRMSTIDGKELLGYIRAVNFNGSAGTPVTFNENGDAPGRYDIFQYQITNKSTEYKVIGHWTNQLHLKVEDMQWAHREHTHPASVCSLPCKPGERKKTVKGVPCCWHCERCEGYNYQVDELSCELCPLDQRPNMNRTGCQLIPIIKLEWHSPWAVVPVFVAILGIIATTFVIVTFVRYNDTPIVRASGRELSYVLLTGIFLCYSITFLMIAAPDTIICSFRRVFLGLGMCFSYAALLTKTNRIHRIFEQGKKSVTAPKFISPASQLVITFSLISVQLLGVFVWFVVDPPHIIIDYGEQRTLDPEKARGVLKCDISDLSLICSLGYSILLMVTCTVYAIKTRGVPETFNEAKPIGFTMYTTCIIWLAFIPIFFGTAQSAEKMYIQTTTLTVSMSLSASVSLGMLYMPKVYIIIFHPEQNVQKRKRSFKAVVTAATMQSKLIQKGNDRPNGEVKSELCESLETNTSSTKTTYISYSNHSI
modifications: SNAP tag labeled with SBG-JF646
- stoichiometry N: 1
